{"source": "the supplement of paper PMC10126150", "note": "Sequences with one replicate were seen in a single cluster, so their values are uncertain.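 Further: ATP exposure 15 min at 22 °C before imaging.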"}
{"test_system": "ATP", "test": "switch fluorescence ratio, 500 uM ATP over buffer (Cy3 cluster intensity, sum of 5 cycles each) (fold (ratio)); higher = stronger signal-on switching upon ATP binding; sequences stand for … in TCGTCGGCAGCGTCAGATGTGTATAAGAGACAGTTTTTTTTTTTTTTTTTTTTTTTTT…TC", "details": "aptamer strand: ATP DNA aptamer (quencher-CACCTGGGGGAGTATTGCGGAGGAAGG + anchor), 100 nM annealed; ATP concentration: 500 uM; one replicate", "how_it_was_run": "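Cy3-labelled switching-strand clusters on a modified Illumina MiSeq flow-cell were annealed to 100 nM quencher-labelled ATP aptamer, imaged in selection buffer, then imaged after 15 min with 500 uM ATP at 22 °C. Five buffer/ATP cycles ran, with NaOH stripping and re-annealing between them. The fluorescence ratio is summed target-cycle over summed buffer-cycle Cy3 intensity per cluster, averaged per switch-domain sequence. Clusters outside 100-1000 RFU were excluded.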"}
{"sequence": "GTACATTAAA", "switch fluorescence ratio": 1.03}
{"sequence": "GTACCGCTCT", "switch fluorescence ratio": 1.02}
{"sequence": "GTACGACACC", "switch fluorescence ratio": 1.8}
{"sequence": "GTACGCCGCA", "switch fluorescence ratio": 1.1}
{"sequence": "GTACGCCGCG", "switch fluorescence ratio": 0.987}
{"sequence": "GTACGGGATA", "switch fluorescence ratio": 1}
{"sequence": "GTACGGGTTT", "switch fluorescence ratio": 1.02}
{"sequence": "GTACTAGGGG", "switch fluorescence ratio": 1.04}
{"sequence": "GTACTATTGA", "switch fluorescence ratio": 0.958}
{"sequence": "GTACTCGTAC", "switch fluorescence ratio": 1.07}
{"sequence": "GTACTGCAGC", "switch fluorescence ratio": 1.02}
{"sequence": "GTAGAATCAT", "switch fluorescence ratio": 1}
{"sequence": "GTAGACACGA", "switch fluorescence ratio": 1.01}
{"sequence": "GTAGAGCAAA", "switch fluorescence ratio": 1.06}
{"sequence": "GTAGAGTCTG", "switch fluorescence ratio": 0.997}
{"sequence": "GTAGATACCG", "switch fluorescence ratio": 0.998}
{"sequence": "GTAGATCCGG", "switch fluorescence ratio": 1.02}
{"sequence": "GTAGCCCGGT", "switch fluorescence ratio": 0.973}
{"sequence": "GTAGCTCTGA", "switch fluorescence ratio": 1.02}
{"sequence": "GTAGCTTATT", "switch fluorescence ratio": 1.02}
{"sequence": "GTAGGAGATC", "switch fluorescence ratio": 1.04}
{"sequence": "GTAGGCAAGC", "switch fluorescence ratio": 1.35}
{"sequence": "GTAGGCAGCT", "switch fluorescence ratio": 0.991}
{"sequence": "GTAGGCCCTA", "switch fluorescence ratio": 0.996}
{"sequence": "GTAGGCCCTG", "switch fluorescence ratio": 0.986}
{"sequence": "GTAGGCCGCA", "switch fluorescence ratio": 1.01}
{"sequence": "GTAGGCGGA", "switch fluorescence ratio": 0.995}
{"sequence": "GTAGGGACTC", "switch fluorescence ratio": 1.02}
{"sequence": "GTAGGGCTGC", "switch fluorescence ratio": 0.937}
{"sequence": "GTAGGGTAAT", "switch fluorescence ratio": 0.948}
{"sequence": "GTAGGTACCT", "switch fluorescence ratio": 1.07}
{"sequence": "GTAGTACGC", "switch fluorescence ratio": 1.04}
{"sequence": "GTAGTAGGTA", "switch fluorescence ratio": 0.996}
{"sequence": "GTAGTAGTGG", "switch fluorescence ratio": 0.98}
{"sequence": "GTAGTCGCTG", "switch fluorescence ratio": 0.995}
{"sequence": "GTAGTGGG", "switch fluorescence ratio": 0.988}
{"sequence": "GTAGTGTCTA", "switch fluorescence ratio": 0.968}
{"sequence": "GTAGTGTCTG", "switch fluorescence ratio": 0.98}
{"sequence": "GTAGTGTTAA", "switch fluorescence ratio": 1.05}
{"sequence": "GTAGTTACGC", "switch fluorescence ratio": 1.03}
{"sequence": "GTAGTTGCAT", "switch fluorescence ratio": 1}
{"sequence": "GTAGTTGTTT", "switch fluorescence ratio": 0.957}
{"sequence": "GTATAAAGTG", "switch fluorescence ratio": 0.971}
{"sequence": "GTATATAATT", "switch fluorescence ratio": 1.02}
{"sequence": "GTATATATGA", "switch fluorescence ratio": 0.999}
{"sequence": "GTATATGGCG", "switch fluorescence ratio": 1.13}
{"sequence": "GTATATGTGT", "switch fluorescence ratio": 0.983}
{"sequence": "GTATCAATCG", "switch fluorescence ratio": 0.983}
{"sequence": "GTATCAGCAT", "switch fluorescence ratio": 1.01}
{"sequence": "GTATCAGGAC", "switch fluorescence ratio": 1.1}
{"sequence": "GTATCAGGTT", "switch fluorescence ratio": 0.965}
{"sequence": "GTATCATCTT", "switch fluorescence ratio": 1}
{"sequence": "GTATCTACTG", "switch fluorescence ratio": 0.999}
{"sequence": "GTATGATAAG", "switch fluorescence ratio": 0.948}
{"sequence": "GTATGCTGAA", "switch fluorescence ratio": 0.986}
{"sequence": "GTATGCTGTG", "switch fluorescence ratio": 1.01}
{"sequence": "GTATGTCAAC", "switch fluorescence ratio": 0.998}
{"sequence": "GTATGTTGAG", "switch fluorescence ratio": 1.01}
{"sequence": "GTATGTTGTA", "switch fluorescence ratio": 1.02}
{"sequence": "GTATTAAGAG", "switch fluorescence ratio": 0.969}
{"sequence": "GTATTAAGTT", "switch fluorescence ratio": 1.39}
{"sequence": "GTATTAATTG", "switch fluorescence ratio": 1.05}
{"sequence": "GTATTAGTAG", "switch fluorescence ratio": 0.982}
{"sequence": "GTATTATCCT", "switch fluorescence ratio": 1.01}
{"sequence": "GTATTCACCC", "switch fluorescence ratio": 1.02}
{"sequence": "GTATTCCGCG", "switch fluorescence ratio": 1.09}
{"sequence": "GTATTCGGAA", "switch fluorescence ratio": 1.01}
{"sequence": "GTATTGTATA", "switch fluorescence ratio": 0.979}
{"sequence": "GTATTGTGCT", "switch fluorescence ratio": 0.939}
{"sequence": "GTATTTAGAG", "switch fluorescence ratio": 0.987}
{"sequence": "GTATTTATC", "switch fluorescence ratio": 1.03}
{"sequence": "GTATTTGTGT", "switch fluorescence ratio": 0.993}
{"sequence": "GTCAATCAGC", "switch fluorescence ratio": 0.993}
{"sequence": "GTCACATATG", "switch fluorescence ratio": 0.943}
{"sequence": "GTCACATGAC", "switch fluorescence ratio": 1.04}
{"sequence": "GTCACGGATG", "switch fluorescence ratio": 1.01}
{"sequence": "GTCACGTTGG", "switch fluorescence ratio": 1.05}
{"sequence": "GTCAGAAGTG", "switch fluorescence ratio": 0.947}
{"sequence": "GTCAGCCAAC", "switch fluorescence ratio": 1.09}
{"sequence": "GTCAGCTTAT", "switch fluorescence ratio": 1.04}
{"sequence": "GTCAGGCGGG", "switch fluorescence ratio": 0.989}
{"sequence": "GTCAGGGGTA", "switch fluorescence ratio": 0.971}
{"sequence": "GTCAGGTGAA", "switch fluorescence ratio": 1.54}
{"sequence": "GTCAGTAAAA", "switch fluorescence ratio": 0.976}
{"sequence": "GTCAGTACCT", "switch fluorescence ratio": 1.21}
{"sequence": "GTCAGTCATT", "switch fluorescence ratio": 0.981}
{"sequence": "GTCAGTCCGA", "switch fluorescence ratio": 1.01}
{"sequence": "GTCAGTTCGC", "switch fluorescence ratio": 0.99}
{"sequence": "GTCATAAACT", "switch fluorescence ratio": 1.1}
{"sequence": "GTCATAAGAA", "switch fluorescence ratio": 1}
{"sequence": "GTCATAAGCG", "switch fluorescence ratio": 1.01}
{"sequence": "GTCATAGGGA", "switch fluorescence ratio": 0.986}
{"sequence": "GTCCAATCGC", "switch fluorescence ratio": 1.08}
{"sequence": "GTCCACCG", "switch fluorescence ratio": 0.986}
{"sequence": "GTCCACGCAC", "switch fluorescence ratio": 2.02}
{"sequence": "GTCCCGACGG", "switch fluorescence ratio": 1.06}
{"sequence": "GTCCCGGAAT", "switch fluorescence ratio": 1.45}
{"sequence": "GTCCGACGGT", "switch fluorescence ratio": 1.18}
{"sequence": "GTCCGCAACG", "switch fluorescence ratio": 3.55}
{"sequence": "GTCCGTCGTA", "switch fluorescence ratio": 0.996}
{"sequence": "GTCCGTGAGA", "switch fluorescence ratio": 1.01}
{"sequence": "GTCCGTTTTT", "switch fluorescence ratio": 0.984}
{"sequence": "GTCCTAATTC", "switch fluorescence ratio": 1.03}
{"sequence": "GTCCTTCCGG", "switch fluorescence ratio": 1.57}
{"sequence": "GTCCTTTATG", "switch fluorescence ratio": 0.937}
{"sequence": "GTCGAAAGCC", "switch fluorescence ratio": 0.953}
{"sequence": "GTCGACGGTT", "switch fluorescence ratio": 0.983}
{"sequence": "GTCGAGAGCC", "switch fluorescence ratio": 0.995}
{"sequence": "GTCGATAAAA", "switch fluorescence ratio": 1}
{"sequence": "GTCGCAGTTG", "switch fluorescence ratio": 1.03}
{"sequence": "GTCGCCGTAG", "switch fluorescence ratio": 1.02}
{"sequence": "GTCGCCTAAT", "switch fluorescence ratio": 1.04}
{"sequence": "GTCGCTACTC", "switch fluorescence ratio": 1.98}
{"sequence": "GTCGGAAAGG", "switch fluorescence ratio": 0.988}
{"sequence": "GTCGGAGATT", "switch fluorescence ratio": 1.02}
{"sequence": "GTCGGATTAC", "switch fluorescence ratio": 1.22}
{"sequence": "GTCGGGGCCA", "switch fluorescence ratio": 1.01}
{"sequence": "GTCGGGGTCG", "switch fluorescence ratio": 0.995}
{"sequence": "GTCGGGTCCG", "switch fluorescence ratio": 1.01}
{"sequence": "GTCGGTGAA", "switch fluorescence ratio": 0.974}
{"sequence": "GTCGTAAACG", "switch fluorescence ratio": 1.01}
{"sequence": "GTCGTACCAC", "switch fluorescence ratio": 0.991}
{"sequence": "GTCGTACGGT", "switch fluorescence ratio": 0.976}
{"sequence": "GTCGTCACA", "switch fluorescence ratio": 1.02}
{"sequence": "GTCGTCAGAC", "switch fluorescence ratio": 1.01}
{"sequence": "GTCGTGACGG", "switch fluorescence ratio": 1.01}
{"sequence": "GTCGTGAGAC", "switch fluorescence ratio": 0.989}
{"sequence": "GTCGTGATTA", "switch fluorescence ratio": 0.97}
{"sequence": "GTCGTGGGGA", "switch fluorescence ratio": 1.04}
{"sequence": "GTCGTTTTAT", "switch fluorescence ratio": 0.959}
{"sequence": "GTCTAAGACC", "switch fluorescence ratio": 0.998}
{"sequence": "GTCTAAGGTG", "switch fluorescence ratio": 1.37}
{"sequence": "GTCTACCATA", "switch fluorescence ratio": 1.06}
{"sequence": "GTCTAGGCGT", "switch fluorescence ratio": 0.979}
{"sequence": "GTCTATGGTA", "switch fluorescence ratio": 1.02}
{"sequence": "GTCTCAAGTA", "switch fluorescence ratio": 0.98}
{"sequence": "GTCTCACCTT", "switch fluorescence ratio": 1.07}
{"sequence": "GTCTCGACAG", "switch fluorescence ratio": 0.999}
{"sequence": "GTCTCTGCAT", "switch fluorescence ratio": 1.46}
{"sequence": "GTCTTAACCG", "switch fluorescence ratio": 0.985}
{"sequence": "GTCTTAATTT", "switch fluorescence ratio": 1.04}
{"sequence": "GTCTTACCTA", "switch fluorescence ratio": 1.07}
{"sequence": "GTCTTAGAGG", "switch fluorescence ratio": 1.02}
{"sequence": "GTCTTTTCAG", "switch fluorescence ratio": 0.973}
{"sequence": "GTCTTTTGG", "switch fluorescence ratio": 1}
{"sequence": "GTGAAAAACC", "switch fluorescence ratio": 1.03}
{"sequence": "GTGAAACATT", "switch fluorescence ratio": 0.97}
{"sequence": "GTGAAACTTT", "switch fluorescence ratio": 1.04}
{"sequence": "GTGAACACCG", "switch fluorescence ratio": 0.994}
{"sequence": "GTGAAGCCTA", "switch fluorescence ratio": 0.935}
{"sequence": "GTGAATACCA", "switch fluorescence ratio": 0.975}
{"sequence": "GTGACCAT", "switch fluorescence ratio": 1.02}
{"sequence": "GTGACCGGGG", "switch fluorescence ratio": 0.98}
